Results from PMC4336329 (PLoS ONE, 2015).
Among all 310,000 compounds or so, about 14,000 (4.5%) showed an effect of 50% or more. The effect is printed as a negative number. Some of the results follow.

Target: human ether-à-go-go-related gene (hERG) potassium channel (human, UniProt Q12809)
Experiment: primary screen, population patch clamp on CHO cells stably expressing hERG
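Note: peak tail current of the secondary pulse compared with the same well before compound.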

Sequence of human ether-à-go-go-related gene (hERG) potassium channel (Q12809 whole entry, looked up): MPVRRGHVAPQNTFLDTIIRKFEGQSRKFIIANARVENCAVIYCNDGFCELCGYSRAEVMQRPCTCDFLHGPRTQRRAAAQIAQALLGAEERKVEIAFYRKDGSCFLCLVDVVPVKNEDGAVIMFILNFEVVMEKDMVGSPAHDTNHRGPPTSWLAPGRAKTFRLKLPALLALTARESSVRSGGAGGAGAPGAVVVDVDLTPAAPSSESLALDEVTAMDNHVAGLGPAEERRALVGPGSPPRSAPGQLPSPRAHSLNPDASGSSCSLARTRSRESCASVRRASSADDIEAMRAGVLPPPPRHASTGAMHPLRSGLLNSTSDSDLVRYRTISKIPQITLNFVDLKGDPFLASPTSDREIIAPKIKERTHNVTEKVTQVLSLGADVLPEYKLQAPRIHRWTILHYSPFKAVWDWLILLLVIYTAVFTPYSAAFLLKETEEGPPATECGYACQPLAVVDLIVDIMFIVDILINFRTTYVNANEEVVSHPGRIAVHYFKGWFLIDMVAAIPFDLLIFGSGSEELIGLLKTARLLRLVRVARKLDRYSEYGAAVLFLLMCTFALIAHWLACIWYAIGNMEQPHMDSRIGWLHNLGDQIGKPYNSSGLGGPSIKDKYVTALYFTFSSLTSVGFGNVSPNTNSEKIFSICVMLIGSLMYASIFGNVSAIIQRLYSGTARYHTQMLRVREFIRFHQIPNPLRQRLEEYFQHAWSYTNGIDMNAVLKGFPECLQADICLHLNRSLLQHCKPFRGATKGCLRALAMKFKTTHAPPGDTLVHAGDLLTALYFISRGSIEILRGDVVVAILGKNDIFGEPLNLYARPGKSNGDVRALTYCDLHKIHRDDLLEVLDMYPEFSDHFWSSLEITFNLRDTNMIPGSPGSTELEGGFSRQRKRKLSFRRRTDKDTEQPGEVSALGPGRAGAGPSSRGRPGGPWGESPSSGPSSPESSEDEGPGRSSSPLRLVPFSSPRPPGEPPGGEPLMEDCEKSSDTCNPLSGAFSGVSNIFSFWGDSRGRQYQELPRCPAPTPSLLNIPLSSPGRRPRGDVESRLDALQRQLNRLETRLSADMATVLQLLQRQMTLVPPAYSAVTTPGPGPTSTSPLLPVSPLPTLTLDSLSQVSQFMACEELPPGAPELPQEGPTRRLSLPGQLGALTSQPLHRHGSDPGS

Structure (SMILES) | hERG current change (%, negative = inhibition) at 10uM [%]
C=CCN(CC=C)S(=O)(=O)c1ccc(NC(=O)COc2ccccc2OC)cc1 | -19.6
CC1(c2cccc(Br)c2)NC(=O)NC1=O (stereo not shown) | 18.1
CC(=O)NC1C(=O)N(CCN2CCOCC2)c2ccc(F)cc21.Cl (stereo not shown) | 14.5
CCCC1=NN2C(=N)/C(=C\c3cc(C)n(-c4cccc(C)c4)c3C)C(=O)N=C2S1 | 5.9
CSc1ncccc1C(=O)NCc1ccc(C)cc1 | 6.56
O=C(c1ccc(F)cc1)C1CCN(C(=O)NCc2ccccc2)CC1 | -6.67
O=C1NN(c2ccc(F)cc2)C(=O)/C1=C\c1cnn(-c2ccccc2)c1 | 2.42
COc1cccc(C(=O)Nc2c3c(nn2-c2ccc([N+](=O)[O-])cc2)CS(=O)(=O)C3)c1 | -53.8
Cc1ccc(OCC(=O)NNC(=S)NC(=O)c2cccs2)c(C)c1 | 27.9
C/C(=N\Nc1nncc2ccccc12)c1ccc(Cl)c([N+](=O)[O-])c1 | 22.9
N#CC1=C(N)Oc2cc(O)c(Cl)cc2C1c1ccccc1F (stereo not shown) | 2.63
COc1cccc(NC(=O)C2CCCN(S(=O)(=O)c3cccc4nsnc34)C2)c1 (stereo not shown) | 0.524
COC(=O)N/N=C/c1cn(CCOc2ccccc2)c2ccccc12 | 8.1
Cc1cc(NC(=O)C2C3C(=O)N(c4cccnc4)C(C(=O)NC(C)(C)C)C34C=CC2(C)O4)no1 (stereo not shown) | 37.2
Cc1cc(C)c2ccc(Cl)cc2n1 | 2.82
Cc1cc(OC(=O)c2c(Cl)cccc2Cl)nc(C)n1 | -21.6
NNC(=O)c1oc2nc(-c3ccc(Cl)cc3)cc(-c3ccccc3)c2c1N | 16.6
Cn1c(C(C#N)C2=C(Cl)C(=O)N(c3ccccc3)C2=O)nc2ccccc21 (stereo not shown) | -2.15
O=C(c1cccc(C(F)(F)F)c1)C1CCCN(Cc2cccn2-c2ccccn2)C1 (stereo not shown) | -83.5
O=C(NCc1cccs1)c1ccc(Br)o1 | 2.25
Cc1ccc(OCc2ccc(Br)cc2)c([N+](=O)[O-])n1 | 5.73
CCOC(=O)CSC(CC)C(=O)Nc1nnc(C(C)C)s1 (stereo not shown) | -1.01

Structure (SMILES) | hERG current change (%, negative = inhibition) at 10uM [%]
N#Cc1cc2ccccc2nc1SCC(=O)Nc1ccc(S(=O)(=O)N2CCCC2)cc1 | 6.03
COc1ccc(Cn2nnnc2C(C(C)C)N2CCc3ccccc32)cc1 (stereo not shown) | -16
COc1cc(CNCCc2ccc(S(N)(=O)=O)cc2)ccc1OCC(=O)NC1CCCCC1.Cl | 10.6
NC(=O)C1CCN(C(=O)COc2ccc(Nc3ccccc3)cc2)CC1 | -11.3
O=C(N/N=C/c1c[nH]c2ccccc12)c1ccc(Cl)cc1 | -2.18
O=C(Nc1nnc(C2CC2)s1)C1Cc2ccccc2CN1S(=O)(=O)c1ccccc1F (stereo not shown) | 0.0152
Br.O=C(O)c1ccc(Nc2nc(-c3ccccc3)cs2)cc1 | 5.87
O=C(c1cccc(S(=O)(=O)NCc2ccc3c(c2)OCO3)c1)N1CCCC1 | -0.297
CCOC(=O)C1CCN(C(=O)c2cc(CN3C(=O)c4ccccc4C3=O)ccc2OCC)CC1 | -28.9
NC(=O)c1sc2nc3c(cc2c1N)CCCCCC3 | 2.42
NC(=O)C1CN(C(=O)c2cccc(S(=O)(=O)N3CCc4ccccc43)c2)c2ccccc2O1 (stereo not shown) | -3.12
CCC1C/C(=C\c2cc(OC)c(OC)cc2OC)C(=O)/C(=C/c2cc(OC)c(OC)cc2OC)C1 (stereo not shown) | 15.1
Cc1ccc(-n2[nH]c(C)c(/C=C3/C=Nc4ccccc43)c2=O)cc1C | -7.42
CC(C)(OC(=O)c1ccc(F)cc1)c1cc2ccccc2c(=O)o1 | 3.1
COC(=O)CN1C(=O)N/C(=C/c2ccc(C)o2)C1=O | -0.35
Cc1ccc(Cn2ncc3c(NCCCN4CCOCC4)ncnc32)cc1 | -2.6
Cc1cc(C)c[n+](C(C)C(=O)c2ccc(-c3ccccc3)cc2)c1.[Br-] (stereo not shown) | 3.92
O=C(O)C1CSC2(c3ccc(Br)cc3)CCC(=O)N12 (stereo not shown) | 21.7
COc1ccccc1N(C)S(=O)(=O)c1ccc(C(=O)NC2CCCCC2)cc1 | -8.31
COC(CNC(=O)c1c[nH]c2ccc(S(=O)(=O)N3CCC4(CC3)OCCO4)cc2c1=O)OC | 3.64
Cc1nc(SCC#N)c2c(C)c(C)sc2n1 | 12.4
O=C1CCc2cc(NS(=O)(=O)c3ccccc3)cc3c2N1CC3 | -9.65

Structure (SMILES) | hERG current change (%, negative = inhibition) at 10uM [%]
Cc1ccc(SCCN2CCN(C)CC2)cc1.Cl | 6.39
O=C(/C=C/c1ccc(Br)cc1)NCCCn1ccnc1 | -57
CN(c1ccc(O)cc1)c1nc(O)c(C2=c3ccccc3=NC2=O)s1 | -11.2
CCc1cccc2c(SCC(=O)NCC3CCCO3)nc(-c3ccc(F)cc3)nc12 (stereo not shown) | 9.66
CSc1nc(=S)n(Cc2ccccc2)c(C)c1C(C)=O | -6.28
CCCCCn1c(=O)c(C(=O)Nc2ccccc2C)c(O)c2ccccc21 | 24.5
O=[N+]([O-])c1cn(Cc2ccccc2)cn1 | 4.23
COc1ccc(C(=O)OCCc2sc[n+](CC(=O)c3ccccc3)c2C)cc1.[Br-] | -48.9
COc1ccc(CN(C)CC(=O)Nc2ccc(N3CCOCC3)cc2)cc1OC | -7.84
COc1ccc(NC(=O)c2cc(S(=O)(=O)N3CCS(=O)(=O)CC3)ccc2Cl)cc1 | 10.4
COc1ccccc1NS(=O)(=O)c1ccc2c(c1)n(C)c(=O)n2C | -17.9
O=C(O)CCCC(=O)Nc1ccc(Oc2ncnc3cc(Cl)ccc23)nc1 | 5.39
COc1ccc(S(=O)(=O)N2CCCCCC2)cc1C(=O)NCCc1ccccc1 | -65.5
COc1cccc(CNC(=O)C2=C(C)C(=O)OC23CCC(C)CC3)c1 (stereo not shown) | -5.65
CC1CCN(C(=O)CSc2nc(C(C)C)nc3c2c(=O)n(C)c(=O)n3C)CC1 | -4.41
CC1=Nc2ccccc2N=C(NC(=O)CSc2nnnn2-c2ccccc2)C1c1ccccc1 (stereo not shown) | -15.3
CC(C)c1ccc(NC(=O)C2CC(=O)Nc3nc4ccccc4n32)cc1 (stereo not shown) | 19.8
O=C(NC1CCCC1)c1cc(COc2ccc3ncccc3c2)on1 | -14
COC(=O)C1C/C(=N/NS(=O)(=O)c2ccc(C)cc2)CS1 (stereo not shown) | -0.137
COc1ccc(C(=O)O)cc1S(=O)(=O)N1CCCc2ccccc21 | 22.4
O=c1c(-c2ccc(F)cc2)coc2cc(O)ccc12 | 0.83
Fc1ccc(NC(=S)Nc2cc(Cl)ccc2Cl)cc1 | 18.8

Structure (SMILES) | hERG current change (%, negative = inhibition) at 10uM [%]
Cn1cccc1/C=C1\SC(=S)N(NC(=O)c2ccc(Cl)cc2)C1=O | 14.5
CC1=C(C(=O)O)N2C(=O)C(NC(=O)CCCC(=O)O)C2SC1 (stereo not shown) | 17.7
Cc1cc(/C=C(\C#N)C(=O)Nc2ccc(F)cc2)c(C)n1-c1ccc(N2CCOCC2)c([N+](=O)[O-])c1 | -1.84
O=C(O)C1CC=CCC1C(=O)Nc1ccccc1Cl (stereo not shown) | 6.59
NC(=O)c1cc(Cl)ccc1OCC(=O)Nc1ccc2c(c1)OCO2 | -7.17
O=C(CN1C(=O)CSC1=O)Nc1ccc(F)c(F)c1F | 8.08
COc1ccc(/C=N/NC(=O)c2cc[n+]([O-])cc2)cc1 | 17.7
O=C(CSc1nc2[nH]ncc2c(=O)[nH]1)c1ccc(Cl)cc1 | 5.9
CN(C)c1ccc(C=C(c2nnnn2-c2ccccc2)c2nnnn2-c2ccccc2)cc1 | 0.928
COC(=O)c1ccc(CN2CCCC(C(=O)Nc3cccc(-n4cccn4)c3)C2)cc1 (stereo not shown) | -27.4
CN(C)c1ccc(/C=N/NC(=O)CSc2ccccn2)cc1 | 7.4
CCOC(=O)C1CCCN(S(=O)(=O)c2cc(C(=O)OC)n(C)c2)C1 (stereo not shown) | 22.9
CCOc1ccc(CC(=O)Nc2c(C(N)=O)oc3ccccc23)cc1OCC | 13
O=C(O)c1cc(-c2ccccc2)n[nH]1 | 15.2
Cl.NCC(c1ccccc1)(c1ccccc1)c1ccccc1 | -15.5
Cc1ccc(/C=N/N2CCOCC2)s1 | 14.4
CCCCNC(=O)c1nnn(-c2ccccc2)c1N | -0.158
Cc1ccc(C)c(N(CC(=O)N2CCCCCC2)S(C)(=O)=O)c1 | 13.5
CC(=O)N(C)c1ccc(NC(=S)Nc2ccc(C(C)C)cc2)cc1.Cl | 13.1
Cc1cc(C)cc(N(CC(=O)N2CCc3ccccc32)S(=O)(=O)c2c(C)noc2C)c1 | -10.7
CC(=O)Nc1cccc(NC(=S)Nc2ccc(F)cc2F)c1 | 5.5
O=C(CSc1nc2ccccc2s1)N1CCN(C(=O)c2ccco2)CC1 | -41.3
